Experimental data reported in the supplement of paper PMC8183993.
Structures can show the parent of a compound that is named as a salt. ± gives the standard deviation of the averaged measurements. Whole data set: some 3,100 compounds, median “mean cytoplasmic OPP incorporation (global translation) relative to DMSO” near 100, cut for the lowest 2% near 56. Some of the results follow.

These molecules were tested on U2OS (assay: mean cytoplasmic OPP incorporation (global translation) relative to DMSO (% of DMSO); higher = more protein synthesis). Settings: 10 µM; 24 h.
Description: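 Primary image-based screen in U2OS cells: compounds at 10 uM for 24 h, then a 1 h o-propargyl-puromycin (OPP) pulse, click labelling, and high-throughput microscopy. Mean cytoplasmic OPP intensity and nuclei count were normalised to DMSO wells within each plate (DMSO = 100) and averaged over triplicate plates.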

Row | SMILES | mean cytoplasmic OPP incorporation
1 | Nc1cc(C(Cl)=C(Cl)Cl)c(S(N)(=O)=O)cc1S(N)(=O)=O [Clorsulon] | 96.4
2 | CC[C@H](C)C(=O)O[C@H]1CCC=C2C=C[C@H](C)[C@H](CC[C@@H]3C[C@@H](O)CC(=O)O3)[C@H]21 [Mevastatin] | 102 ± 2.1
3 | Cc1ccc2c(c1)C(=O)C1(O)CCN(c3ccccc3)C1=N2 (stereo not given) [(?)-Blebbistatin] | 94.5
4 | COc1c2occc2c(OC)c2c(=O)cc(C)oc12 [Khellin] | 86.9
5 | CC(=O)[C@]1(O)Cc2c(O)c3c(c(O)c2[C@@H](O[C@H]2C[C@H](N)[C@H](O)[C@H](C)O2)C1)C(=O)c1ccccc1C3=O [Idarubicin HCl] | 60.3
6 | Cn1ccc2cc(NC(=O)Nc3cccnc3)ccc21 | 92.4
7 | CS(=O)(=O)N1CCc2c(-c3cnc(N)nc3)nc(N3CCOCC3)nc21 | 79.4 ± 20
8 | O=c1oc2ccccc2c(O)c1Cc1c(O)c2ccccc2oc1=O [Dicumarol] | 93.9
9 | O=C1c2ccccc2C(=O)c2c1ccc(O)c2O [Alizarin] | 106
10 | CC(/C=C1\SC(=S)N(CC(=O)O)C1=O)=C\c1ccccc1 [Epalrestat] | 97.3
11 | CCC(=O)OCN1C(=O)C=CC1=O | 99.3
12 | CCCOc1ccn2c(C(C)=O)cc(-c3ccccc3S(C)(=O)=O)c2c1 | 101
13 | CN1CCN(CCCN2c3ccccc3Sc3ccc(Cl)cc32)CC1 [Prochlorperazine dimaleate] | 116
14 | CN(C)C[C@@H]1CCn2cc(c3ccccc32)C2=C(C(=O)NC2=O)c2cn(c3ccccc23)CCO1 | 90.3
15 | Cc1nc(=O)c2cc(CN(C)c3ccc(C(=O)N[C@@H](CCC(=O)O)C(=O)O)s3)ccc2[nH]1 [Raltitrexed (Tomudex)] | 97.6
16 | CC1(C)O[C@@H]2C[C@H]3[C@@H]4CCC5=CC(=O)C=C[C@]5(C)[C@@]4(F)[C@@H](O)C[C@]3(C)[C@]2(C(=O)CO)O1 [Triamcinolone Acetonide] | 104
17 | N=C(N)SCCc1c[nH]cn1 [Imetit dihydrobromide] | 99
18 | COc1cc(O)cc(O)c1C(=O)/C=C/c1ccccc1 [Cardamonin] | 104
19 | CC(C)NCC(O)COc1ccc(CC(N)=O)cc1 (racemic) [(RS)-Atenolol] | 105
20 | Cc1cnc(NC(=O)C2=C(O)c3ccccc3S(=O)(=O)N2C)s1 [Meloxicam] | 103
21 | O=C(O)CCCc1ccccc1 [sodium 4-Phenylbutyrate] | 122
22 | O=C(O)COC(=O)Cc1ccccc1Nc1c(Cl)cccc1Cl [Aceclofenac] | 92.4
23 | c1ccc(CN2CCC3(CCc4ccccc43)CC2)cc1 [L-693,403 maleate] | 100
24 | C[C@@H]1C[C@H]2[C@@H]3CCC4=CC(=O)C=C[C@]4(C)[C@@]3(F)[C@@H](O)C[C@]2(C)[C@@]1(O)C(=O)CO [Dexamethasone] | 105 ± 12
25 | CCN1CCC[C@H]1CNC(=O)c1c(OC)ccc(Br)c1OC [Remoxipride hydrochloride] | 105

Row | SMILES | mean cytoplasmic OPP incorporation
26 | CCN1CCC[C@H]1CNC(=O)c1c(OC)ccc(Br)c1OC [Remoxipride Hydrochloride] | 104
27 | CCN1CCN(c2cc3c(cc2F)c(=O)c(C(=O)O)cn3C2CC2)CC1 [Enrofloxacin] | 98.2
28 | FC(F)c1nc2ccccc2n1-c1nc(N2CCOCC2)nc(N2CCOCC2)n1 | 108
29 | N=C(N)S/C=C\C(=O)O [ZAPA sulphate] | 107
30 | Cc1nnc(NS(=O)(=O)c2ccc(N)cc2)s1 [Sulfamethizole] | 97.8
31 | CN(C)c1ccc(/C=C2/C(=O)Nc3ccccc32)cc1 | 88.7
32 | CC1CC(OC(=O)C(O)c2ccccc2)CC(C)(C)N1C (stereo not given) [Eucatropine hydrochloride] | 123
33 | COc1ccccc1S(=O)(=O)Nc1ccc2c(c1)CN(C)C(=O)N2 | 62.3 ± 7.8
34 | c1cc2c(cc1C1CCCCC1)c1c3n2CCNC3CCC1 (stereo not given) [Tetrindole mesylate] | 129
35 | Cc1cc(Nc2ncnc3ccc(-c4ccc(CNCCS(C)(=O)=O)o4)cc23)ccc1Oc1ccn2ncnc2c1 [HER2 Inhibitor 1] | 119
36 | CC(C(=O)O)c1ccc(N2Cc3ccccc3C2=O)cc1 (stereo not given) [Indoprofen] | 101
37 | CC1=Nc2ccc(Cl)cc2S(=O)(=O)N1 [Diazoxide] | 98.2 ± 3.3
38 | O=C(NCCO[N+](=O)[O-])c1cccnc1 [Nicorandil] | 101 ± 4.9
39 | Cc1ccc(Cl)c(Nc2ccccc2C(=O)O)c1Cl [Meclofenamic acid sodium salt monohydrate] | 105
40 | C=C1/C(=C\C=C2/CCC[C@]3(C)[C@@H]([C@H](C)/C=C/[C@@H](O)C4CC4)CC[C@@H]23)C[C@@H](O)C[C@@H]1O [Calcipotriene] | 101
41 | C=C1/C(=C\C=C2/CCC[C@]3(C)[C@@H]([C@H](C)/C=C/[C@@H](O)C4CC4)CC[C@@H]23)C[C@@H](O)C[C@@H]1O [Calcipotriol] | 95.5
42 | COC(=O)Nc1nc2ccc(SC(C)C)cc2[nH]1 [Methiazole] | 71.8
43 | COC(=O)C1=C(C)NC(C)=C(C(=O)OCCCN2CCC(c3ccccc3)(c3ccccc3)CC2)[C@H]1c1cccc([N+](=O)[O-])c1 [Niguldipine] | 101.5 ± 1
44 | COC(=O)C1=C(C)NC(C)=C(C(=O)OCCCN2CCC(c3ccccc3)(c3ccccc3)CC2)[C@H]1c1cccc([N+](=O)[O-])c1 [(S)-(+)-Niguldipine hydrochloride] | 116
45 | COC(=O)C1=C(C)NC(C)=C(C(=O)OCCCN2CCC(c3ccccc3)(c3ccccc3)CC2)[C@H]1c1cccc([N+](=O)[O-])c1 [S-(+)-Niguldipine hydrochloride] | 102
46 | CN(C)CCOc1ccc(/C(=C(/CCCl)c2ccccc2)c2ccccc2)cc1 [Toremifene] | 118
47 | CCN1CCN(C(=O)N[C@@H](C(=O)N[C@@H]2C(=O)N3C(C(=O)O)=C(CSc4nnnn4C)CS[C@H]23)c2ccc(O)cc2)C(=O)C1=O [Cefoperazone dihydrate] | 97.1
48 | CNC(=O)[C@H](Cc1c[nH]c2ccccc12)NC(=O)[C@@H](CC(=O)NO)CC(C)C | 100
49 | C[C@H]1C[C@H]2[C@@H]3CCC4=CC(=O)C=C[C@]4(C)[C@@]3(F)[C@@H](O)C[C@]2(C)[C@@]1(O)C(=O)CO [Betamethasone (Celestone)] | 101
50 | C[C@H]1C[C@H]2[C@@H]3CCC4=CC(=O)C=C[C@]4(C)[C@@]3(F)[C@@H](O)C[C@]2(C)[C@@]1(O)C(=O)CO [Betamethasone] | 101
